# In PubChem BioAssay AID1030 (National Center for Advancing Translational Sciences (NCATS), 2008):
# The campaign covered roughly 220,000 compounds. About 16,000 (7.3%) were called active. Inconclusive means that the source gave no clear call. Such entries were picked first, then a sample of the others. The call rests on the fitted dose curve; in most records, active means well fitted inhibition curve with a large enough effect (not every such curve was filed as active); inconclusive means small, poorly fitted or top-dose-only effect, or another doubt; inactive means no such curve, though single readings can be large or run the other way. No potency is given beside an inconclusive call; the fits are too rough.
# Target: Aldehyde dehydrogenase 1A1 (Homo sapiens) (UniProt P00352)
# Assay: qHTS Assay for Inhibitors of Aldehyde Dehydrogenase 1 (ALDH1A1)
# Settings: Purified ALDH1A1, NADH fluorescence, propionaldehyde substrate; series mostly up to 75.3 µM
# Potency means the concentration at half of the fitted maximal effect; tags describe the fitted curve by direction and shape.
# Chain of UniProt P00352 (P00352 whole entry, looked up): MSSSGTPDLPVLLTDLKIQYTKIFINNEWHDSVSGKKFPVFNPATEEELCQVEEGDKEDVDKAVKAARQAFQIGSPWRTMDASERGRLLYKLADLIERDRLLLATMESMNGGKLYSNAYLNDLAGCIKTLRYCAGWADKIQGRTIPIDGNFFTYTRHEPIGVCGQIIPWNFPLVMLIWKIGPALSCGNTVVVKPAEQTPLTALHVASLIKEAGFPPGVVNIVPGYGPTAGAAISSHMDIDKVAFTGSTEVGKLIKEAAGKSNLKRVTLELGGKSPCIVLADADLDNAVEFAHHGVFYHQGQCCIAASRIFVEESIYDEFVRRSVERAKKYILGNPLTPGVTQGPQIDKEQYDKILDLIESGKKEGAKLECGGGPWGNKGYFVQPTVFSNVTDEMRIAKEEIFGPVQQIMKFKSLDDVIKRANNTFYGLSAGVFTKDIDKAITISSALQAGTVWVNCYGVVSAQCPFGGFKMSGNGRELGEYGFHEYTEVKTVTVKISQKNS
row,Structure (SMILES),Potency
1,COCCNc1nc(C)nc2c1nc(-c1ccccc1)n2CCN1CCCC1,"inconclusive [inhibitor, partial curve]"
2,COc1ccc(/C=C(/C#N)C(=O)NC2CCCCC2)cc1Br,"inconclusive [inhibitor, partial curve]"
3,CS(=O)(=O)c1ccc(C(=O)Nc2ccc(N3CCOCC3)cc2)c(Cl)c1,inactive
4,CCOc1cc(C)c(S(=O)(=O)Nc2ccc3cn[nH]c3c2)cc1C,"inconclusive [inhibitor, partial curve]"
5,NC(=O)c1cc(-c2ccccc2)sc1NC(=O)Cc1ccc(S(=O)(=O)N2CCOCC2)s1,inactive
6,Cc1nc2cnc(N(C)C)nc2n(CCC#N)c1=O,"inconclusive [inhibitor, single point]"
7,C(=C\c1ccccc1)/CSc1nnc(-c2ccccc2)n1Cc1ccco1,"inconclusive [inhibitor, single point]"
8,N#Cc1c(NC(=O)COC(=O)c2ccc(S(=O)(=O)N3CCCC3)cc2)sc2c1CCCCC2,active: 10 µM
9,O=C(c1ccc(N2CCCC2=O)cc1)N1CCOCC1,inactive
10,COc1ccccc1NC(=O)N1CCN(c2ccccn2)CC1,"inconclusive [inhibitor, single point]"
11,CNC(CC(=O)c1ccc([N+](=O)[O-])cc1)C(Cl)(Cl)Cl (stereo not given),active: 0.562 µM
12,COc1ccc(N2C(=O)C3CCCN3C2c2ccccc2)cc1Cl (stereo not given),"inconclusive [inhibitor, single point]"
13,COC(=O)c1ccccc1NC(=O)COC(=O)c1ccc(C)c(NC(=O)c2ccco2)c1,"inconclusive [inhibitor, single point]"
14,O=C(/C=C/Nc1ccc(Oc2ccccc2Cl)cc1)c1ccco1,"inconclusive [inhibitor, single point]"
15,COc1ccc(NC(=O)N2CC[C@@]3(CCCN(C(=O)c4cccn4C)C3)C2)cc1,"inconclusive [inhibitor, partial curve]"
16,CC1CCCCC1NC(=O)CSc1nc2ccccc2c(=O)n1Cc1ccco1 (stereo not given),inactive
17,COc1ccc(Cc2nnc(NC(=O)Cc3cccs3)s2)cc1,"inconclusive [inhibitor, single point]"
18,Cc1c(C)c2cc(Cl)c(OCc3nn[nH]n3)cc2oc1=O,"inconclusive [inhibitor, partial curve]"
19,Cc1ccccc1NC(=O)c1c(C)nn(-c2ccccc2)c1Cl,"inconclusive [inhibitor, single point]"
20,O=C(Cc1n[nH]c(=O)[nH]c1=O)N/N=C/c1c(O)ccc2ccccc12,inactive
21,CCCN(CCC)CCCNc1ccc2nnc(-c3ccc(F)cc3)n2n1,"inconclusive [inhibitor, single point]"
22,CCOC(=O)N1CCN(CC(=O)N2c3ccccc3CCc3ccccc32)CC1,inactive
23,COCC(COCCCNC(=O)Nc1ccc(Br)cc1)OC (stereo not given),"inconclusive [inhibitor, single point]"

row,Structure (SMILES),Potency
1,COc1ccc(OC)c(C2=NOC(C(=O)NCCN3CCOCC3)C2)c1 (stereo not given),inactive
2,CC(C)CN(C(=O)CSc1nn(-c2ccc(Cl)cc2)c(=S)s1)C1CCS(=O)(=O)C1 (stereo not given),"inconclusive [inhibitor, single point]"
3,CC(=O)Oc1oc(-c2ccccc2)nc1C=Nc1ccc(N(C)C)cc1,active: 0.562 µM
4,CN1CCN(C(=O)c2cnn3c(C(F)(F)F)cc(-c4ccc5c(c4)OCO5)nc23)CC1,"inconclusive [inhibitor, single point]"
5,O=C(NN=C1CCCCCCCCCCC1)c1cccc(S(=O)(=O)N2CCOCC2)c1,active: 12.6 µM
6,CCCc1cc(=O)oc2cc(OCC(=O)N(C)C)c(Cl)cc12,"inconclusive [inhibitor, partial curve]"
7,COCC(C)NCc1ccc(OC)c(Br)c1 (stereo not given),"inconclusive [inhibitor, partial curve]"
8,O=[N+]([O-])c1cc(-n2cnnn2)ccc1N1CCC(Cc2ccccc2)CC1,"inconclusive [inhibitor, partial curve]"
9,CCCN1Cc2cccc(C(=O)Nc3ccc(-c4nc5ccccc5[nH]4)cc3)c2C1=O,inactive
10,Cc1cc(Br)ccc1SCC(=O)OCC(=O)N1CCN(C(=O)c2ccco2)CC1,"inconclusive [inhibitor, partial curve]"
11,CCc1nnc(SCc2ccc(CSc3nnc(CC)n3N)cc2)n1N,inactive
12,COc1ccc(C)cc1NC(=S)NNC(=O)c1c(Br)cnn1C,"inconclusive [inhibitor, single point]"
13,COc1ccc(Cl)c(Cn2c(NCc3ccco3)nc3c2c(=O)n(C)c(=O)n3C)c1,"inconclusive [inhibitor, partial curve]"
14,COc1ccc(CNC(=O)Cn2nc(-c3ccc4c(c3)OCCO4)ccc2=O)cc1,"inconclusive [inhibitor, partial curve]"
15,CCOC(=O)N1CCC(NC(=O)c2ccc3c(c2)N(C)CCS3)CC1,"inconclusive [inhibitor, partial curve]"
16,CN(C)/N=C/c1ccc([N+](=O)[O-])cc1[N+](=O)[O-],"inconclusive [inhibitor, single point]"
17,CCOc1ccc2nc(N=NC3=C(O)CC(C)(C)CC3=O)sc2c1,"inconclusive [inhibitor, partial curve, poor fit]"
18,CCC12OC(=N)C(C#N)(C1C)C(C#N)(C#N)C(c1ccccc1)O2 (stereo not given),"inconclusive [inhibitor, partial curve]"
19,CC1CCN(S(=O)(=O)c2ccc(Oc3ccc([N+](=O)[O-])cc3)cc2)CC1,inactive
20,CCn1c(SCC(=O)N/N=C/C=C/c2ccco2)nnc1-c1ccccc1,active: 17.8 µM
21,CCc1ccc(NC(=O)N(CCN(C)C)C(C)c2cccnc2)cc1 (stereo not given),"inconclusive [inhibitor, single point]"
22,O=C(O)c1ccc(Nc2nc(-c3cc4ccccc4oc3=O)cs2)cc1O,"inconclusive [inhibitor, single point]"
